B1: CPEB3 Ribozyme (parent)
chain: UAACAGGGGGCCACAGCAGAAGCGUUCACGUCGCAGCCCCUGUCAGAUUCUGGUGAAUCUGCGAAUUCUGCUGUAUAUCUC

Read counts are not given, so values of variants with three or more changes are uncertain.

The variants in this series derive from B1. The series is described as follows: self-cleavage, relative activity (ratio to wild type); higher = more cleavage; in vitro, sequencing. The essentials: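 CPEB3 self-cleaving ribozyme mutant libraries were made by rounds of error-prone PCR, barcoded, and transcribed in vitro with T7 RNA polymerase for 5 hours at 37°C. Cleavage occurred during transcription and a 15 min DNase I step before EDTA stop. RNAs were reverse transcribed with template switching and Illumina-sequenced, with DNA sequencing mapping barcodes to variants. Relative activity is the variant's cleaved/total read fraction divided by wild type's (minimum 5 reads), averaged across three batches.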
Take UAACAGGGGGCCACAGCAGAGGCGUGCACGCCGCAGCCCCCGUCAGAUUCUGGUGAAUCUGCGAGUUCUGAUGUAUAUCUC: the self-cleavage was determined as 0.07. Under UAACAGGGGGCCACAGCAGAGGCGUUCACGACGCAGCCCCUGUCGGAUUCUGGUGAAUCUGCGAAUUCUGCUGUAUAUCUC stands 0.38. For UAACAGGGGGCCACAGCAGAGGCGUUCACGUCGCAGCCCCAGUCAGAUUCUCGUGGAUCUGCGAAUCCUCCCGUAUAUCUC the value was 0.21. Under UAACAGGGGGCCACAGCAGAGGCGUUCACGUCGCAGCCCCAGUCAGGUUCUGGUGAAUAUGCGAAUUCUGCUGUAUAUCUC stands 0.16; under UAACAGGGGGCCACAGCAGAGGCGUUCACGACGCAGCCCCUGUCAGAUUCAGGUGAGUCUGCGAAUUCUGCUGUAUAUCAC, 0.16. Turning to UAACAGGGGGCCACAGCAGAGGCGUUCACGUCGCAGCCCCCGUCAGAUACUGGUGAAUCUGCGAAUUCUGCAGUAUAUCUC, the self-cleavage came out at 0.51. Under UAACAGGGGGCCACAGCAGAGGCGUUCACGUCGCAGCCCCCGCCAGACUCUGGUGAAUCUGCGAGUUCUGUAGUAUAUCUC stands 0.28; under UAACAGGGGGCCACAGCAGAGGCGUCCACGUCGCAGCCCCUGUCAGAUUCUGGUGAAUCUGCGAAUUCUGCUGCAUAUCUC, 0.48.

For the variant UAACAGGGGGCCACAGCAGAGGCGUUCACGACGCAGCCCCUGUCAGAUUCAGGUGAAUCUGCGAAUUCUGCUGUAUAUCUC, the self-cleavage amounted to 0.29.

In the case of UAACAGGGGGCCACAGCAGAGGCGUUCACGCCGCAGCCCCUGUCGGAUUCUGGUGAAUCUGCGAAUUCUGCAGUAUAUCUC, the self-cleavage came out at 0.07. Under UAACAGGGGGCCACAGCAGAGGCGUUCACGACGCAGCCCCUGUCAGAUUCUGGUGAGUCUGCGAAAUCUGCUGUGUAUCUC stands 0.06; under UAACAGGGGGCCACAGCAGAGGCGUGCACGUCGCAGCCCCUGUCAGAUUCUGGUGAAUCUGCGAAUUCUGCUGUGUAUCUC, 0.27; under UAACAGGGGGCCACAGCAGAGGCGUUCACGCCGCAGCCCCUGUCAGAUCCCGGUGAAUCUGCGAAUUCUGCUGUAUAUCUC, 0.09. For UAACAGGGGGCCACAGCAGAGGCGUUCACGACGCAGCCCCUGUCAGAUACCGGUGAAUCUGCGAAUCCUGCCGUAUAUCUC the value was 0.11. In the case of UAACAGGGGGCCACAGCAGAGGCGUUCACGUCGCAGCCCCAGUCAGAUUCUGGCGAAUCUGCGAAUUCUGCUGUAUAUCUU, the self-cleavage amounted to 0.12. Under UAACAGGGGGCCACAGCAGAGGCGUUCACGCCGCAGCCCCUGUCAGAUUCUGGUGGAUCUGCGAAUUCUGCCGUAUAUCUC stands 0.16.

With UAACAGGGGGCCACAGCAGAGGCGUUCACGACGCAGCCCCUGUCAGAUACUGGUGAAUCAGCGAAUUCUGCUGUAUAUCUC, the self-cleavage worked out at 0.17. For UAACAGGGGGCCACAGCAGAGGCGUUCACGCCGCAGCCCCUGUCAGAUUCCGGUGAAUCUGCUAAUUCUGCCGUAUAUCUC the value was 0.15; for UAACAGGGGGCCACAGCAGAGGCGUUCACGACGCAGCCCCUGUCAGAAUCUGGUGAAUCUGCGAAUUCUGCUGUAUAUCUC, 0.23. Under UAACAGGGGGCCACAGCAGAGGCGUUCACGACGCAGCCCCUGUCAGACUCUGGUGAAUCUGCGGAUUCUGCUGUAUAUCUC stands 0.19. Regarding UAACAGGGGGCCACAGCAGAGGCGUUCACGUCGCAGCCCCAGGCAGAUUCUGGUGAAUCUGCGAACUCCGCCGUAUAUCUC, the self-cleavage amounted to 0.09. Under UAACAGGGGGCCACAGCAGAGGCGUUCACGUCGCAGCCCCUGACAGAUUCUGGUGGAUCUGCGAAUUCAGCUGUAUAUCUC stands 0.27; under UAACAGGGGGCCACAGCAGAGGCGUUCACGUCGCAGCCCCAGUCAGACUCUGGUGAAUCUGCGAAUUCUACGGUAUAUCUC, 0.09. In the case of UAACAGGGGGCCACAGCAGAGGCGUUCACGCCGCAGCCCCUGUCAGAUUCUGGUGAAUCCGCGAAUUCUGCUGUAUAUCUC, the self-cleavage was 0.11. For UAACAGGGGGCCACAGCAGAGGCGUUCACGCCGCGGCCCCUGUCAGAUUCUGGCGAAUCUGCGAAUACUGCUGUAUAUCUC the value was 0.2; for UAACAGGGGGCCACAGCAGAGGCGUUCACGUCGCAGCCCCCGUCAGAUUCUGGUGAAUCAGCGUAUUCUGCUGUAUAUCUC, 0.13; for UAACAGGGGGCCACAGCAGAGGCGUUCACGUCGCAGCCCCAGUCAGAUUCUGGUGAAUCUGCGAGUUCUGCAGUAUAUCUC, 0.05. For UAACAGGGGGCCACAGCAGAGGCGUCCACGUCGCAGCCCCUGUCAGAUUCUGGUGAAUCUGCGAAUUCUGCUGUACAUCUC the value was 0.26; for UAACAGGGGGCCACAGCAGAGGCGUUCACGUCGCAGCCCCAGUCUGAUGCUGGUGAAUCUGCGAGUUCUGCUGUAUAUCUC, 0.05; for UAACAGGGGGCCACAGCAGAGGCGUUCACGUCGCAGCCCCCGUCAGAUUCUGGUGAAUCUGCGAAUUCUGCUGAAUAUCUC, 1.06. Under UAACAGGGGGCCACAGCAGAGGCGUUCACGUCGCAGCCCCAGUCAGAUUCCGGUGAAUCUGCGAAUUCUGCUGUAUAUCUC stands 0.15. As to UAACAGGGGGCCACAGCAGAGGCGUUCACGGCGCAGCCCCUGUCAGAUUCUGGUGAAUCUGCGAAUACUGCUGUAUAUCUC, the self-cleavage is 0.29. Under UAACAGGGGGCCACAGCAGAGGCGUUCACGUCGCAGCCCCCGUCAGAUUCGGGUGAGUCUGCGAAUUCUGCUGUAUAUCUC stands 0.35.

In the case of UAACAGGGGGCCACAGCAGAGGCGUGCACGUCGCAGCCCCUGUCAGAUUCUGGUGAAUCUGCGAACUCUGCUGUAUAUCUC, the self-cleavage amounted to 0.23.

The values above are taken from the RNAGym collection of RNA variant scans (doi:10.1093/nar/gkz1192).
